Assay results: the supplement of paper PMC3334620
Whole data set: some 33,000 sequences, median “E-score (-0.5 to 0.5)” near -0.056, cut for the highest 2% near 0.38. This is one part of the list.

Target: Stb4 (UniProt P50104)
Test: PBM E-score (8-mer binding enrichment) (E-score (-0.5 to 0.5)); higher = stronger / more preferred TF binding; most listed sequences are background and not binding sites
Settings: protein concentration: 200 nM; construct: GST-DNA-binding domain
How it was run: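 Yeast transcription factors carrying a GST tag, as full-length proteins or DNA-binding domains, were produced by PURExpress in vitro transcription/translation. About 100-200 nM protein was applied to universal all-10-mer Agilent arrays, double-stranded by primer extension on fresh or once-stripped slides. Bound protein was detected with fluorescent anti-GST, and scans were normalised with masliner. The Universal PBM Analysis Suite gave each ungapped eight-base word, pooled with its reverse complement, an E-score, a modified Wilcoxon-Mann-Whitney statistic.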

| Sequence | PBM E-score |
| --- | --- |
| ATGTCTCG | 0.139 |
| AGAACCTA | -0.177 |
| ACCATCTA | -0.0705 |
| GCCTATGA | -0.191 |
| AGTTCAAG | -0.0337 |
| GTCACGCA | -0.139 |
| ACCACCGG | 0.221 |
| CACCACTC | 0.0997 |
| ACTCACTC | -0.0472 |
| CAGCAAGC | -0.175 |
| AATTGAAC | -0.0663 |
| GAGCCCCA | -0.0528 |
| AGCGGCAA | 0.0896 |
| ACTATAGA | -0.143 |
| CCATACAG | -0.242 |
| ACCCCTGG | -0.0589 |
| AATCCGGT | 0.246 |
| CAGGGGAC | -0.0799 |
| CGATGGCG | 0.118 |
| TATCTGCA | -0.273 |
| ACCTCCCG | 0.259 |
| AAATTCTT | -0.152 |
| TACAAGGA | 0.0789 |
| GGCTCCTA | -0.101 |
| CTTCACCC | 0.127 |

| Sequence | PBM E-score |
| --- | --- |
| CTGTAAGC | -0.0275 |
| CAAGATCG | 0.0793 |
| CTGTGGAA | 0.0525 |
| GGTGCATA | 0.0207 |
| CACTGGGC | -0.0958 |
| GCTAATCC | 0.119 |
| ATGTAATA | 0.0534 |
| GCGGACCA | 0.0609 |
| TTGAGAAA | -0.263 |
| CTTGAACA | -0.151 |
| CAAGAGCC | 0.0369 |
| AAGCCGGA | 0.355 |
| AACGTCGC | -0.129 |
| ATTGGCAG | -0.138 |
| CAGCAAAG | -0.158 |
| TATCTTGA | -0.172 |
| ACGCTGCC | 0.0694 |
| GTCTCGAA | -0.255 |
| AGTCTCTC | -0.0527 |
| AAACAATA | 0.106 |
| GTTACGAA | 0.00692 |
| ACGTGCAA | -0.00192 |
| GAAACCAC | -0.143 |
| CAGCCCGC | -0.0714 |
| CAAACACG | -0.0796 |

| Sequence | PBM E-score |
| --- | --- |
| GACTAGAC | -0.264 |
| GCCGTTCC | 0.251 |
| TGCGCTAA | -0.124 |
| GGTAACAC | 0.0631 |
| CAGTGGTC | -0.00329 |
| CCGGTGCG | 0.213 |
| GGTCCTGA | -0.0152 |
| CAGTCACG | -0.091 |
| CCTTATAC | -0.195 |
| CCTGGTAG | -0.0625 |
| CACACGCA | -0.161 |
| CACACCGG | 0.116 |
| CCTAAGCC | -0.0686 |
| CAAACCAG | -0.234 |
| CCCGAACC | 0.414 |
| ACAGCTTG | -0.24 |
| ACTCCACT | -0.273 |
| CTGCCAGA | -0.112 |
| TAATGCGA | -0.116 |
| CTTTCACC | 0.0158 |
| CGCAGCTA | -0.117 |
| ATATACCG | 0.285 |
| AGTACACC | -0.105 |
| CTGCTGGC | -0.12 |
| AAATATTT | -0.0922 |

| Sequence | PBM E-score |
| --- | --- |
| ACCGTCCG | 0.306 |
| CCACTCTA | -0.211 |
| GACACTCA | -0.0571 |
| AATTTTCA | -0.101 |
| AAGCCCAT | -0.167 |
| AACATCAT | -0.244 |
| AAGGCCAA | -0.173 |
| AGACCTAT | -0.0162 |
| CCTATTGA | -0.076 |
| CTTACTAA | -0.176 |
| GATGAGAC | -0.0117 |
| CGGGTCAG | 0.307 |
| CGCGAAAG | -0.185 |
| CTGCCTTC | -0.148 |
| GCTCACCC | 0.0535 |
| ACAATCAT | 0.0445 |
| AAGCGAAG | -0.0993 |
| ATGTCTTG | 0.097 |
| AGTGAATG | 0.0927 |
| TACGATCA | -0.0761 |
| GCGCAAGA | -0.036 |
| ATAGCGCA | -0.283 |
| CGTGTATA | -0.0661 |
| CATCCAGC | -0.0946 |
| CCATGGCC | -0.199 |

| Sequence | PBM E-score |
| --- | --- |
| AGGCGTCC | -0.031 |
| GGCGGAAC | 0.356 |
| AACAAAAG | -0.145 |
| GAGCTAGA | -0.245 |
| GACTCTTA | -0.0225 |
| CCCTGAAC | 0.0103 |
| CTCTGAGA | -0.24 |
| ATTCATAG | -0.243 |
| CAATTGGC | -0.333 |
| CCGGAGCA | 0.324 |
| ACCGAACA | 0.313 |
| GCTTGTAC | 0.122 |
| AGCTCTGC | -0.239 |
| TGTACAAA | -0.0897 |
| AGAGTTAG | -0.0199 |
| CTGTATAA | -0.161 |
| AGCTTGCG | -0.13 |
| AATGTAGA | -0.118 |
| GACATAGA | -0.141 |
| TACCGCCA | 0.0746 |
| CTCAAAAG | -0.188 |
| CGTATGCC | 0.0723 |
| TCCATTAA | -0.0401 |
| GCGCCAGA | -0.145 |
| GTATCCAC | -0.0779 |

| Sequence | PBM E-score |
| --- | --- |
| TTAGCAAA | -0.0159 |
| AAAGTGCG | 0.049 |
| CTGAGAAG | -0.133 |
| ATTGCCCA | -0.184 |
| ACTAACCC | -0.05 |
| GACGGAGA | 0.187 |
| AGTCATCG | 0.0193 |
| TCGTGTAA | 0.109 |
| AAATTAAT | -0.0543 |
| TGACGCCA | -0.15 |
| GCCTTAGA | -0.0921 |
| CCTACACC | -0.11 |
| CATATGGA | -0.178 |
| GAGCCGAC | 0.296 |
| CGCCTATA | 0.0945 |
| CGGCAGAA | 0.315 |
| GGTCACGA | -0.207 |
| TGGAACCA | 0.0635 |
| CAAGGTGA | -0.153 |
| ATAACCGA | 0.388 |
| GCAGTGCC | -0.0171 |
| ATATGTCA | -0.067 |
| AGATTCCT | -0.216 |
| GCCTATAC | -0.132 |
| AAACGATT | -0.137 |

| Sequence | PBM E-score |
| --- | --- |
| CAGCGAGG | -0.219 |
| GCATCTGA | -0.0869 |
| CAAGTAAG | -0.26 |
| ACGAACCA | -0.151 |
| CCATTTGC | -0.0898 |
| ATAGCCAT | -0.0728 |
| AGTTGGGA | -0.101 |
| GAGTGAGA | 0.0876 |
| ATAGCTCG | 0.152 |
| CTACCAGA | -0.0851 |
| ACGACACA | -0.281 |
| CGCGTTCC | 0.245 |
| ATTCGACC | -0.194 |
| TGTAATAA | -0.181 |
| CTGATGAA | -0.359 |
| AACCTGTC | -0.08 |
| ATGCGTAC | 0.0213 |
| TCACAAGA | -0.198 |
| CGCCGAAC | 0.366 |
| GTTTGCGA | -0.155 |
| CGCAGCCA | 0.0301 |
| CTGTTTAC | -0.154 |
